# Assay results: the supplement of paper PMC8728848
# Some of the results follow.
# B1: Arath Fbox (Arabidopsis thaliana), NP_178341.1 (protein)
# chain: EFTWGRKRRVKSESSPFDSFPEDCISYIISFTNPRDACVAATVSKTFESTVKSDIIWEKFLPADYESLIPPSRVFSSKKELYFSLCNDPVLFDDDKKSVWLEKASGKRCLMLSAMNLSIIWGDNPQYWQWIPIPESRFEKVAKLRDVCWFEIRGRTNTRVLSPRTRYSAYIVFKGVDKCYGFQNVAIEAAVGVVGQEPSRRLICFSEAIRRGRRNVVKPKQREDGWMEIELGEFFNDGGIMDNDEIEMSALETKQLNRKCGLIIQGIEIRPAKILAAAAASFLEQKLISEEDLNSAVDHHHHHH
# Columns and labels:
# Experiment in all cases: glycan array binding signal (z-score within array); higher = stronger binding
# Settings in all cases: glycan notation: IUPAC condensed, linker removed
# Gal(a1-3)Gal = target: Gal(a1-3)Gal
# Outline: (§1)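 The Consortium for Functional Glycomics database supplied 3228 glycan arrays, of which those lacking an available protein sequence were dropped. The binding signal, a within-array Z-score, was averaged across arrays of the same protein sequence and across linkers. Negative scores can be read as non-binding.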
# Gal(a1-3)Gal(b1-3)GlcNAc = target: Gal(a1-3)Gal(b1-3)GlcNAc
# Outline: as §1
# [1] = target: Gal(a1-3)Gal(b1-3)GlcNAc(b1-2)Man
# Outline: as §1
# [2] = target: Gal(a1-3)Gal(b1-3)GlcNAc(b1-2)Man(a1-3)[Gal(a1-3)Gal(b1-3)GlcNAc(b1-2)Man(a1-6)]Man(b1-4)GlcNAc(b1-4)GlcNAc
# Outline: as §1
# [3] = target: Gal(a1-3)Gal(b1-3)GlcNAc(b1-3)GalNAc
# Outline: as §1
# [4] = target: Gal(a1-3)Gal(b1-3)GlcNAc(b1-6)GalNAc
# Outline: as §1
# [5] = target: Gal(a1-3)Gal(b1-3)[Fuc(a1-4)]GlcNAc(b1-2)Man(a1-3)[Gal(a1-3)Gal(b1-3)[Fuc(a1-4)]GlcNAc(b1-2)Man(a1-6)]Man(b1-4)GlcNAc(b1-4)GlcNAc
# Outline: as §1
# Gal(a1-3)Gal(b1-4)Glc = target: Gal(a1-3)Gal(b1-4)Glc
# Outline: as §1
# Gal(a1-3)Gal(b1-4)GlcNAc = target: Gal(a1-3)Gal(b1-4)GlcNAc
# Outline: as §1
# [6] = target: Gal(a1-3)Gal(b1-4)GlcNAc(b1-2)Man
# Outline: as §1
# [7] = target: Gal(a1-3)Gal(b1-4)GlcNAc(b1-2)Man(a1-3)[Gal(a1-3)Gal(b1-4)GlcNAc(b1-2)Man(a1-6)]Man(b1-4)GlcNAc(b1-4)GlcNAc
# Outline: as §1
# [8] = target: Gal(a1-3)Gal(b1-4)GlcNAc(b1-3)GalNAc
# Outline: as §1
# [9] = target: Gal(a1-3)Gal(b1-4)GlcNAc(b1-6)GalNAc
# Outline: as §1
# [10] = target: Gal(a1-3)Gal(b1-4)[Fuc(a1-3)]GlcNAc
# Outline: as §1
# [11] = target: Gal(a1-3)Gal(b1-4)[Fuc(a1-3)]GlcNAc(b1-2)Man(a1-3)[Gal(a1-3)Gal(b1-4)[Fuc(a1-3)]GlcNAc(b1-2)Man(a1-6)]Man(b1-4)GlcNAc(b1-4)GlcNAc
# Outline: as §1
# Gal(a1-3)GalNAc = target: Gal(a1-3)GalNAc
# Outline: as §1
# [12] = target: Gal(a1-3)[Gal(a1-4)]Gal(b1-4)GlcNAc
# Outline: as §1
# [13] = target: Gal(a1-4)Gal(b1-3)GlcNAc(b1-2)Man(a1-3)[Gal(a1-4)Gal(b1-3)GlcNAc(b1-2)Man(a1-6)]Man(b1-4)GlcNAc(b1-4)GlcNAc
# Outline: as §1
# Gal(a1-4)Gal(b1-4)Glc = target: Gal(a1-4)Gal(b1-4)Glc
# Outline: as §1
# Gal(a1-4)Gal(b1-4)GlcNAc = target: Gal(a1-4)Gal(b1-4)GlcNAc
# Outline: as §1
# [14] = target: Gal(a1-4)Gal(b1-4)GlcNAc(b1-2)Man(a1-3)[Gal(a1-4)Gal(b1-4)GlcNAc(b1-2)Man(a1-6)]Man(b1-4)GlcNAc(b1-4)GlcNAc
# Outline: as §1
# [15] = target: Gal(a1-4)Gal(b1-4)GlcNAc(b1-3)Gal(b1-4)Glc
# Outline: as §1
# Gal(a1-4)GlcNAc = target: Gal(a1-4)GlcNAc
# Outline: as §1
# Gal(a1-6)Glc = target: Gal(a1-6)Glc
# Outline: as §1
# Gal(b1-2)Gal = target: Gal(b1-2)Gal
# Outline: as §1
# Gal(b1-3)Gal = target: Gal(b1-3)Gal
# Outline: as §1
# Gal(b1-3)Gal(b1-4)GlcNAc = target: Gal(b1-3)Gal(b1-4)GlcNAc
# Outline: as §1
# Gal(b1-3)GalNAc = target: Gal(b1-3)GalNAc
# Outline: as §1
# [16] = target: Gal(b1-3)GalNAc(a1-3)[Fuc(a1-2)]Gal(b1-4)Glc
# Outline: as §1
# [17] = target: Gal(b1-3)GalNAc(a1-3)[Fuc(a1-2)]Gal(b1-4)GlcNAc
# Outline: as §1
# Gal(b1-3)GalNAc(b1-3)Gal = target: Gal(b1-3)GalNAc(b1-3)Gal
# Outline: as §1
# [18] = target: Gal(b1-3)GalNAc(b1-3)Gal(a1-4)Gal(b1-4)Glc
# Outline: as §1
# [19] = target: Gal(b1-3)GalNAc(b1-4)Gal(b1-4)Glc
# Outline: as §1
# [20] = target: Gal(b1-3)GalNAc(b1-4)[Neu5Ac(a2-3)]Gal(b1-4)Glc
# Outline: as §1
# Gal(b1-3)GlcNAc = target: Gal(b1-3)GlcNAc
# Outline: as §1
# [21] = target: Gal(b1-3)GlcNAc(a1-3)Gal(b1-4)GlcNAc
# Outline: as §1
# [22] = target: Gal(b1-3)GlcNAc(a1-6)Gal(b1-4)GlcNAc
# Outline: as §1
# Gal(b1-3)GlcNAc(b1-2)Man = target: Gal(b1-3)GlcNAc(b1-2)Man
# Outline: as §1
binder,measurement,setting,value
B1,glycan array binding signal (z-score),Gal(a1-3)Gal,-0.35
same,glycan array binding signal (z-score),Gal(a1-3)Gal(b1-3)GlcNAc,12
same,glycan array binding signal (z-score),[1],0.956
same,glycan array binding signal (z-score),[2],1.17
same,glycan array binding signal (z-score),[3],-0.242
same,glycan array binding signal (z-score),[4],-0.119
same,glycan array binding signal (z-score),[5],3.32
same,glycan array binding signal (z-score),Gal(a1-3)Gal(b1-4)Glc,0.415
same,glycan array binding signal (z-score),Gal(a1-3)Gal(b1-4)GlcNAc,-0.461
same,glycan array binding signal (z-score),[6],-0.588
same,glycan array binding signal (z-score),[7],1.57
same,glycan array binding signal (z-score),[8],-0.652
same,glycan array binding signal (z-score),[9],-0.593
same,glycan array binding signal (z-score),[10],-0.11
same,glycan array binding signal (z-score),[11],0.161
same,glycan array binding signal (z-score),Gal(a1-3)GalNAc,-0.233
same,glycan array binding signal (z-score),[12],1.48
same,glycan array binding signal (z-score),[13],2.49
same,glycan array binding signal (z-score),Gal(a1-4)Gal(b1-4)Glc,0.185
same,glycan array binding signal (z-score),Gal(a1-4)Gal(b1-4)GlcNAc,0.523
same,glycan array binding signal (z-score),[14],0.198
same,glycan array binding signal (z-score),[15],-0.37
same,glycan array binding signal (z-score),Gal(a1-4)GlcNAc,-0.661
same,glycan array binding signal (z-score),Gal(a1-6)Glc,0.448
same,glycan array binding signal (z-score),Gal(b1-2)Gal,0.344
same,glycan array binding signal (z-score),Gal(b1-3)Gal,-0.692
same,glycan array binding signal (z-score),Gal(b1-3)Gal(b1-4)GlcNAc,1.16
same,glycan array binding signal (z-score),Gal(b1-3)GalNAc,-0.086
same,glycan array binding signal (z-score),[16],-0.148
same,glycan array binding signal (z-score),[17],-0.124
same,glycan array binding signal (z-score),Gal(b1-3)GalNAc(b1-3)Gal,-0.739
same,glycan array binding signal (z-score),[18],0.603
same,glycan array binding signal (z-score),[19],0
same,glycan array binding signal (z-score),[20],0.28
same,glycan array binding signal (z-score),Gal(b1-3)GlcNAc,-0.544
same,glycan array binding signal (z-score),[21],0.017
same,glycan array binding signal (z-score),[22],0.001
same,glycan array binding signal (z-score),Gal(b1-3)GlcNAc(b1-2)Man,0.065
